The other results are listed elsewhere or left out.

This experiment relates to HSkMC (human skeletal muscle cells). Nature of the experiment: cytotoxicity call (relative viability < 0.9). As to conditions: 10 µM.
Regarding `O=C(C[C@H]1CC[C@@H]2[C@H](COC[C@H](O)CN2CC2CCOCC2)O1)N1CCOCC1`, the cytotoxicity call is “inactive”. With `CN1C(=O)c2cc(NC(=O)Cc3cccs3)ccc2OC[C@H]2O[C@@H](CC(=O)NCCCN3CCOCC3)CC[C@@H]21`, the cytotoxicity call is “inactive”.

Consider `COC[C@@H]1CN(C(=O)c2cscn2)N1C`, for which the cytotoxicity call is “inactive”.

`C/C=C/c1ccc2c(c1)O[C@H](CN(C)C(=O)c1ccc3c(c1)OCO3)[C@H](C)CN([C@H](C)CO)S2(=O)=O`: the cytotoxicity call was “inactive”. `O=S1(=O)OC(c2ccc(O)cc2)(c2ccc(O)cc2)c2ccccc21`: the cytotoxicity call is “inactive”. In the case of `Cc1noc(C)c1NC(=O)N(C)C[C@@H]1Oc2cc(Br)ccc2S(=O)(=O)N([C@@H](C)CO)C[C@H]1C` it was “inactive”; in that of `CCN(CC)C(=O)c1ccc(O)c(OC)c1`, “inactive”; in that of `C[C@@H]1CN([C@H](C)CO)C(=O)c2cccc(NS(=O)(=O)c3cccs3)c2O[C@@H]1CN(C)Cc1ccc(Cl)c(Cl)c1`, “inactive”. As for `COc1ccc(S(=O)(=O)N2C[C@@H](O)COC[C@@H]3O[C@H](CC(=O)NCCCN(C)C)CC[C@H]32)cc1`, the cytotoxicity call was “inactive”. The result for `C[C@H](CO)N1C[C@H](C)[C@@H](CN(C)Cc2ccc(C(F)(F)F)cc2)Oc2ccc(NC(=O)CCC(F)(F)F)cc2C1=O` reads “inactive”; that for `CC(=O)OCC(=O)C1(O)CCC2C3CCC4=CC(=O)C=CC4(C)C3(Cl)C(Cl)CC21C` (stereo not given), “inactive”; that for `C[C@H](CO)N1C[C@H](C)[C@H](CN(C)C(=O)Nc2ccc(F)cc2)OCCCC[C@H](C)Oc2ccc(NC(=O)C3CCOCC3)cc2C1=O`, “inactive”. In the case of `Cc1noc(C)c1S(=O)(=O)Nc1ccc2c(c1)CC(=O)N([C@@H](C)CO)C[C@@H](C)[C@H](CN(C)S(=O)(=O)c1ccc(Cl)cc1)O2` it was “inactive”. Take `Cc1ccc(S(=O)(=O)Nc2ccc3c(c2)C(=O)N([C@H](C)CO)C[C@@H](C)[C@@H](CN(C)C(=O)Nc2ccc4c(c2)OCO4)OCCCC[C@H](C)O3)cc1`: the cytotoxicity call is “inactive”.

As to `CC(=O)NS(=O)(=O)c1ccc(N)cc1`, the cytotoxicity call was “inactive”. With `C=CC[C@@H](CC(=O)NCCO)C(=O)NC[C@H](OC(=O)[C@H](CC=C)CC(=O)OC(C)(C)C)c1ccccc1`, the cytotoxicity call is “inactive”. The result for `C[C@@H]1CCCCO[C@@H](CN(C)C(=O)NC2CCCCC2)[C@H](C)CN([C@@H](C)CO)C(=O)c2cc(NC(=O)Cc3ccccc3)ccc2O1` reads “inactive”; that for `CNC(=C[N+](=O)[O-])NCCSCc1csc(CN(C)C)n1`, “inactive”; that for `O=c1ccc2c[nH][nH]c-2c1`, “inactive”. In the case of `CC(C)NC(=O)N(C)C[C@H]1Oc2ccc(NS(=O)(=O)c3ccccc3)cc2CC(=O)N([C@H](C)CO)C[C@@H]1C`, the cytotoxicity call is “inactive”. The result for `C[C@H]1CN([C@@H](C)CO)C(=O)Cc2cc(NC(=O)CCC(F)(F)F)ccc2O[C@H]1CN(C)S(=O)(=O)c1cccs1` reads “inactive”; that for `CCS(=O)(=O)N(C)C[C@@H]1OCc2ccccc2-c2c(n(C)c3ccccc23)C(=O)N([C@H](C)CO)C[C@@H]1C`, “inactive”; that for `Cc1noc(C)c1NC(=O)Nc1ccc2c(c1)C(=O)N([C@H](C)CO)C[C@H](C)[C@H](CN(C)S(=O)(=O)c1ccc(F)cc1)OCCCC[C@@H](C)O2`, “inactive”. As to `C[C@H](CO)N1C[C@H](C)[C@@H](CN(C)S(=O)(=O)c2cccs2)Oc2ccc(NC(=O)Nc3cccc4ccccc34)cc2C1=O`, the cytotoxicity call is “inactive”. Regarding `C[C@H]1CN([C@@H](C)CO)C(=O)Cc2cc(NS(=O)(=O)c3ccc(F)cc3)ccc2O[C@H]1CN(C)S(=O)(=O)c1ccccc1`, the cytotoxicity call is “inactive”. In the case of `CO[C@H](CN(C)C(=O)Nc1ccc(C(F)(F)F)cc1)[C@H](C)CN(Cc1ccccc1Cl)[C@@H](C)CO` it was “inactive”; in that of `CCS(=O)(=O)N1CC[C@]2(CC1)CN(Cc1ccccc1OC)[C@H](CO)c1c2c2ccc(cc2n1C)OC`, “inactive”; in that of `C[C@H](CO)N1C[C@H](C)[C@H](CN(C)Cc2ccc(C(=O)Nc3ccccc3N)cc2)OCCCC[C@H](C)Oc2ccc(NC(=O)C3CCCCC3)cc2C1=O`, “inactive”. With `C[C@@H]1CN([C@H](C)CO)C(=O)Cc2cc(NS(=O)(=O)c3ccc(Cl)cc3)ccc2O[C@@H]1CN(C)C(=O)Nc1ccc(C(F)(F)F)cc1`, the cytotoxicity call is “inactive”. The result for `CC(=O)c1ccc(OCc2nnn(CC(=O)NS(=O)(=O)Cc3ccccc3)c2-c2ccccc2)cc1` reads “inactive”; that for `C[C@@H]1CN([C@@H](C)CO)C(=O)c2cc(NC(=O)NC3CCCCC3)ccc2O[C@@H](C)CCCCO[C@@H]1CN(C)C(=O)CCC(F)(F)F`, “inactive”; that for `C=CCC[C@H](Cc1ccc(F)cc1)C(=O)OC[C@@H](Cc1c[nH]c2ccccc12)NC(=O)[C@@H](CC=C)CC(=O)N[C@@H](CO)Cc1ccccc1`, “inactive”. Consider `C[C@H]1CN([C@@H](C)CO)C(=O)c2cccc(NS(=O)(=O)c3cccs3)c2O[C@@H]1CN(C)Cc1ccc(Cl)c(Cl)c1`, for which the cytotoxicity call is “inactive”. For the compound `Cc1noc(C)c1S(=O)(=O)N(C)C[C@H]1OCCCC[C@H](C)Oc2ccc(NC(=O)Nc3ccccc3)cc2C(=O)N([C@H](C)CO)C[C@@H]1C`, the cytotoxicity call was “active”. Regarding `C[C@@H]1CN([C@@H](C)CO)C(=O)c2cccc(NC(=O)c3cnccn3)c2O[C@@H]1CN(C)CC1CCCCC1`, the cytotoxicity call is “inactive”. Turning to `NC(=O)C[n+]1cccc2ccccc21`, the cytotoxicity call is “inactive”. In the case of `COc1ccc(NC(=O)Nc2ccc3c(c2)C(=O)N([C@@H](C)CO)C[C@@H](C)[C@H](CN(C)Cc2ccc(C(=O)O)cc2)OCCCC[C@@H](C)O3)cc1` it was “inactive”.

In the case of `CC(C)CC#Cc1ccc2c(c1)O[C@H](CN(C)C(=O)Cc1cccnc1)[C@@H](C)CN([C@H](C)CO)S2(=O)=O`, the cytotoxicity call was “inactive”. Regarding `CC(C)c1ccc2c(c1)C(=O)[C@H](N)CCO2`, the cytotoxicity call was “inactive”. On to `Oc1c(Cl)cc(Cl)c2cccnc12`, for which the cytotoxicity call was “inactive”.
